Measurements: PMC6919601, “Identification of Plasmodium dipeptidyl aminopeptidase allosteric inhibitors by high throughput screening” (PLoS ONE, 2019)
Out of some 110,000 compounds screened, about 230 (0.21%) showed an effect of 50% or more. The list shows a part of the results.

Each molecule was assayed against DPAP1 (Plasmodium falciparum, UniProt Q8IIJ9) (assay: primary screen, percent inhibition; read by cleavage of a fluorogenic dipeptide substrate; higher = more effect of the substance).
Parameters: species or system P. falciparum D10 trophozoite lysates; single well
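Note: 30 min substrate incubation versus DMSO and 10 µM JCP410 controls.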

Chain of DPAP1 (Q8IIJ9 whole entry, looked up): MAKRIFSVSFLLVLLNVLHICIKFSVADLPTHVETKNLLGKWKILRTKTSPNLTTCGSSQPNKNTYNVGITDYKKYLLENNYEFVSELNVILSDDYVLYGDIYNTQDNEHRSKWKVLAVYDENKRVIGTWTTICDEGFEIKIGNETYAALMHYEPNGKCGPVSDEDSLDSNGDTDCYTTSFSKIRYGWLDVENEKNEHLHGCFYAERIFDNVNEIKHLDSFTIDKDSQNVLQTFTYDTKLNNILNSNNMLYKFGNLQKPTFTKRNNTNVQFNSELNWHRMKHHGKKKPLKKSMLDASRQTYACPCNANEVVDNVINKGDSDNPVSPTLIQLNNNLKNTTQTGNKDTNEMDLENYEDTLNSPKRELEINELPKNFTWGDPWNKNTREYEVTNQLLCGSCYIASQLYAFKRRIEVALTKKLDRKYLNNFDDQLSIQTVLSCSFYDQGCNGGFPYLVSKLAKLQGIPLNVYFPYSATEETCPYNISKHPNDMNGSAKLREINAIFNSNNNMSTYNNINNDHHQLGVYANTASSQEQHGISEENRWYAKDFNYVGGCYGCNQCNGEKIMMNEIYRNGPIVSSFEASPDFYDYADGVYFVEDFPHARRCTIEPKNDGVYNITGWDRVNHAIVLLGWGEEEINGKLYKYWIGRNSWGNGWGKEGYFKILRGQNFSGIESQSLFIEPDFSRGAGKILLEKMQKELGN

Row | SMILES | % Inhibition @ 10 uM [%]
1 | Cn1c(-c2ccc3c(c2)OCO3)cnc1NCc1ccccc1 | -2.91
2 | CC1(C(=O)O)CCC(C(=O)NCc2ccccc2)C1(C)C (centres unmarked) | 4.54
3 | COc1ccc(NC(=O)C2CCC(N3C(=O)C4C5CCC(C5)C4C3=O)CC2)cc1 (centres unmarked) | -4.68
4 | COCCNC(=O)C(C)n1sc2ccccc2c1=O (centres unmarked) | -6.64
5 | O=C(Nc1cccc(-c2nc3ncccc3o2)c1)c1ccccc1Br | 2.42
6 | CCc1ccc(C(=O)CSc2nc(C)cc(O)n2)cc1 | 2.36
7 | COC(=O)c1ccccc1S(=O)(=O)NC(=O)Nc1nc(N)nc(-c2ccccc2OC)n1 | 0.716
8 | CC(=O)c1cccc(NC(=O)C(C)Oc2ccc(Cl)cc2Cl)c1 (centres unmarked) | 1.72
9 | CCc1nnc2c(NCc3ccc4c(c3)OCO4)nc3ccccc3n12 | 3.58
10 | Cc1ccc(NC(=O)CN2C(=O)S/C(=C\c3sccc3C)C2=O)cc1 | -3.75
11 | Cc1ccc(C)c(N2C(=O)C3C4C=CC(CO)(O4)C3C2=O)c1 (centres unmarked) | -0.641
12 | Cc1ccc(CCNC(=O)c2cnc3ccc(S(=O)(=O)N4CCOCC4)cc3c2Cl)cc1 | 3.04
13 | C=CCn1c(=N)c(C(=O)NC(C)c2ccccc2)cc2c(=O)n3ccccc3nc21 (centres unmarked) | 3.6
14 | COc1ccc(Br)cc1CN1CCN(c2ccccc2OC)CC1 | -1.98
15 | COc1ccc(OC)c(CNC2CCCC2)c1 | -5.2
16 | CC(C)NCC(=O)NC12CC3CC(CC(C3)C1)C2 | -0.711
17 | COc1cc(OC)cc(C(=O)Nc2cccc(-c3nc4ccccc4o3)c2)c1 | 1.92
18 | Cc1ccccc1-c1nnnn1C1CC(=O)C2OCC1O2 (centres unmarked) | 1.03
19 | CCCOc1ccc(N2C(=O)CC(N3CCCC3)C2=O)cc1 (centres unmarked) | 0.983
20 | Cc1ccc(NC(=O)c2ccc(-c3ccccc3)cc2)cc1F | 1.04
21 | CCc1ccccc1NC(=O)CSC1=C(C#N)C(c2ccco2)C(C(=O)Nc2ccccc2)=C(C)N1 (centres unmarked) | -7.4
22 | COc1ccc(C(=O)Nc2ccccc2OC)cc1Br | 4
23 | COc1ccc(CC(=N)NOC(=O)c2ccccc2Cl)cc1 | 5.23
24 | Cc1ccc(-n2c(C)cc(/C=C3/C(=N)N4C=CSC4=NC3=O)c2C)cc1Cl | 2.25
25 | CCOc1ccc(N2C(=O)C3C(c4ccccc4)OC4(C(=O)c5ccccc5C4=O)C3C2=O)cc1 (centres unmarked) | -1.24

Row | SMILES | % Inhibition @ 10 uM [%]
26 | CCOCCCNC(=O)Cc1ccc(F)cc1 | 7.98
27 | O=C(c1cc(-c2ccc(Cl)cc2)n[nH]1)N1CCC(N2CCCCC2)CC1 | 2.28
28 | CCCOC(=O)c1cccc(-c2ccc(/C=C3/C(=O)N(CCC)C(=O)C(C#N)=C3C)o2)c1 | 2.56
29 | Cc1ccc2cnn(CCCC(=O)NCc3cccs3)c2c1 | -2.88
30 | Cc1ccc(F)cc1NC(=O)CSc1nc(N)cc(N)n1 | -2.46
31 | COc1ccc(Cl)cc1S(=O)(=O)Nc1noc2ccccc12 | 2.19
32 | O=C(O)COc1ccccc1C1OC2CCCCC2C2=CCCCC21 (centres unmarked) | 2.94
33 | CC(C)N1C(=O)S/C(=C/c2ccc(C#N)cc2)C1=O | 3.49
34 | O=C(NC(c1ccccc1)c1ccccc1)c1ccc(Cl)cc1Cl | -5.26
35 | N#CC1=C(N)Oc2[nH]nc(-c3ccccc3)c2C1c1ccncc1 (centres unmarked) | -5.48
36 | CCOc1ccc(NS(=O)(=O)c2ccc(F)cc2)cc1 | 3.47
37 | C=C(Br)C[C@H](NC(=O)OCc1ccccc1)C(=O)NC(C#N)c1sccc1C (some centres unmarked) | -1.41
38 | N#CC1=C(N)Oc2c(oc(CO)cc2=O)C1c1c(Cl)cccc1Cl (centres unmarked) | -2.77
39 | Cc1cccc(C2=N/C(=C\c3coc4ccccc4c3=O)C(=O)O2)c1 | 2.92
40 | O=S(=O)(c1ccc(Cl)cc1)N(Cc1nc(-c2ccccc2)no1)C1CCCCC1 | -1.22
41 | COc1ccc(CCNC(=O)CCCN2C(=O)CSc3ncccc32)cc1OC | -4.15
42 | CCC(C(=O)Nc1sc2c(c1C(N)=O)CCCC2)c1ccccc1 (centres unmarked) | -3.24
43 | NC(=O)C1CCCN(C2C3CC4CC(C3)CC2C4)C1 (centres unmarked) | -5.11
44 | CCOC(=O)N1CCN(S(=O)(=O)c2ccc(C3CCCCC3)cc2)CC1 | -0.703
45 | CCCCNS(=O)(=O)c1ccc2nc(O)ccc2c1 | -2.07
46 | COc1ccc(Br)cc1CNC(=O)C1CCN(c2nnc(N3CCCC3=O)s2)CC1 | -4.68
47 | Cn1c(=O)c2c(ncn2CC(=O)Nc2ccc(C(N)=O)cc2)n(C)c1=O | 1.02
48 | Cc1sc2ncnc(SCC(=O)NC3CC3)c2c1C | 0.843
49 | CCOC(=O)c1c(C)oc2ncnc(NCc3ccc(Cl)cc3)c12 | 2.09
50 | CC(C)(C)c1ccc(OCc2nn3c(Cn4cnc5ccccc54)nnc3s2)cc1 | 11.7
